# In the supplement of paper PMC8728848:
# Some of the results follow.
# How the values were obtained:
# Test in all cases: glycan array binding signal (z-score within array); higher = stronger binding
# Conditions in all cases: glycan notation: IUPAC condensed, linker removed; mutation: R349A
# [1] = target: Fuc(a1-3)[GalNAc(b1-4)]GlcNAc
# Outline: (§1)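 Negative Z-scores can be read as non-binding. The Z-score is calculated within each array and then averaged across arrays of one protein sequence at different concentrations or buffers and across linkers. Arrays, 3228 in all, were curated from the Consortium for Functional Glycomics database and kept only where the protein sequence was available.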
# [2] = target: Fuc(a1-4)GlcNAc
# Outline: as §1
# [3] = target: Fuc(b1-3)GlcNAc
# Outline: as §1
# [4] = target: Gal(a1-2)Gal
# Outline: as §1
# [5] = target: Gal(a1-3)Gal
# Outline: as §1
# [6] = target: Gal(a1-3)Gal(b1-3)GlcNAc
# Outline: as §1
# [7] = target: Gal(a1-3)Gal(b1-4)Glc
# Outline: as §1
# [8] = target: Gal(a1-3)Gal(b1-4)GlcNAc
# Outline: as §1
# [9] = target: Gal(a1-3)Gal(b1-4)[Fuc(a1-3)]GlcNAc
# Outline: as §1
# [10] = target: Gal(a1-3)GalNAc
# Outline: as §1
# [11] = target: Gal(a1-3)[Gal(a1-4)]Gal(b1-4)GlcNAc
# Outline: as §1
# [12] = target: Gal(a1-4)Gal(b1-4)Glc
# Outline: as §1
# [13] = target: Gal(a1-4)Gal(b1-4)GlcNAc
# Outline: as §1
# [14] = target: Gal(a1-4)GlcNAc
# Outline: as §1
# [15] = target: Gal(a1-6)Glc
# Outline: as §1
# [16] = target: Gal(b1-2)Gal
# Outline: as §1
# [17] = target: Gal(b1-3)Gal
# Outline: as §1
# [18] = target: Gal(b1-3)Gal(b1-4)GlcNAc
# Outline: as §1
# [19] = target: Gal(b1-3)GalNAc
# Outline: as §1
# [20] = target: Gal(b1-3)GalNAc(b1-3)Gal(a1-4)Gal(b1-4)Glc
# Outline: as §1
# [21] = target: Gal(b1-3)GalNAc(b1-4)Gal(b1-4)Glc
# Outline: as §1
# [22] = target: Gal(b1-3)GalNAc(b1-4)[Neu5Ac(a2-3)]Gal(b1-4)Glc
# Outline: as §1
# [23] = target: Gal(b1-3)GlcNAc
# Outline: as §1
# [24] = target: Gal(b1-3)GlcNAc(b1-2)Man(a1-3)[Gal(b1-3)GlcNAc(b1-2)Man(a1-6)]Man(b1-4)GlcNAc(b1-4)GlcNAc
# Outline: as §1
# [25] = target: Gal(b1-3)GlcNAc(b1-3)Gal(b1-3)GlcNAc
# Outline: as §1
# [26] = target: Gal(b1-3)GlcNAc(b1-3)Gal(b1-4)Glc
# Outline: as §1
# [27] = target: Gal(b1-3)GlcNAc(b1-3)Gal(b1-4)GlcNAc
# Outline: as §1
# [28] = target: Gal(b1-3)[Fuc(a1-4)]GlcNAc
# Outline: as §1
# [29] = target: Gal(b1-3)[Fuc(a1-4)]GlcNAc(b1-3)Gal(b1-3)[Fuc(a1-4)]GlcNAc
# Outline: as §1
# [30] = target: Gal(b1-3)[Fuc(a1-4)]GlcNAc(b1-3)Gal(b1-4)GlcNAc
# Outline: as §1
# [31] = target: Gal(b1-3)[Fuc(a1-4)]GlcNAc(b1-3)Gal(b1-4)[Fuc(a1-3)]GlcNAc
# Outline: as §1
# [32] = target: Gal(b1-3)[GlcNAc(b1-6)]GalNAc
# Outline: as §1
# [33] = target: Gal(b1-3)[Neu5Ac(a2-6)]GalNAc
# Outline: as §1
# [34] = target: Gal(b1-3)[Neu5Ac(a2-6)]GlcNAc(b1-6)Gal(b1-4)Glc
# Outline: as §1
# [35] = target: Gal(b1-3)[Neu5Ac(b2-6)]GalNAc
# Outline: as §1
# [36] = target: Gal(b1-4)GalNAc(a1-3)[Fuc(a1-2)]Gal(b1-4)GlcNAc
# Outline: as §1
# [37] = target: Gal(b1-4)GalNAc(b1-3)[Fuc(a1-2)]Gal(b1-4)GlcNAc
# Outline: as §1
# [38] = target: Gal(b1-4)Glc
# Outline: as §1
# [39] = target: Gal(b1-4)Glc6S
# Outline: as §1
# [40] = target: Gal(b1-4)GlcNAc
# Outline: as §1
# [41] = target: Gal(b1-4)GlcNAc(a1-6)Gal(b1-4)GlcNAc
# Outline: as §1
# [42] = target: Gal(b1-4)GlcNAc(b1-2)Man(a1-3)[Gal(b1-4)GlcNAc(b1-2)Man(a1-6)]Man(b1-4)GlcNAc(b1-4)GlcNAc
# Outline: as §1
# [43] = target: Gal(b1-4)GlcNAc(b1-3)Gal(b1-3)GlcNAc
# Outline: as §1
# [44] = target: Gal(b1-4)GlcNAc(b1-3)Gal(b1-4)Glc
# Outline: as §1
# [45] = target: Gal(b1-4)GlcNAc(b1-3)Gal(b1-4)GlcNAc
# Outline: as §1
binder,measurement,setting,value
Surfactant Protein D (Human); Neck + Carbohydrate Recognition Domain (NCRD) (Homo sapiens) (protein) MLLFLLSALVLLTQPLGYLEAEMKTYSHRTMPSACTLVMCSSVESGLPGRDRDGREGPRGEKGDPGLPGAAGQAGMPGQAGPVGPKGDNGSVGEPGPKGDTGPSGPPGPPGVPGPAGREGALGKQGNIGPQGKPGPKGEAGPKGEVGAPGMQGSAGARGLAGPKGERGVPGERGVPGNTGAAGSAGAMGPQGSPGARGPPGLKGDKGIPGDKGAKGESGLPDVASLRQQVEALQGQVQHLQAAFSQYKKVELFPNGQSVGEKIFKTAQFVKPFTEAQLLCTQAGGQLASPRSAAENAALQQLVVAKNEAAFLSMTDSKTEGKFTYPTGESLVYSNWAPGEPNDDGGSEDCVEIFTNGKWNDRACGEKALVVCEF,glycan array binding signal (z-score),[1],-0.711
same,glycan array binding signal (z-score),[2],-0.024
same,glycan array binding signal (z-score),[3],-0.301
same,glycan array binding signal (z-score),[4],-0.249
same,glycan array binding signal (z-score),[5],-0.669
same,glycan array binding signal (z-score),[6],-0.301
same,glycan array binding signal (z-score),[7],-0.543
same,glycan array binding signal (z-score),[8],-0.728
same,glycan array binding signal (z-score),[9],-0.759
same,glycan array binding signal (z-score),[10],-0.834
same,glycan array binding signal (z-score),[11],-0.857
same,glycan array binding signal (z-score),[12],-0.284
same,glycan array binding signal (z-score),[13],-0.293
same,glycan array binding signal (z-score),[14],-0.242
same,glycan array binding signal (z-score),[15],-0.467
same,glycan array binding signal (z-score),[16],-0.684
same,glycan array binding signal (z-score),[17],-0.335
same,glycan array binding signal (z-score),[18],-0.169
same,glycan array binding signal (z-score),[19],-0.459
same,glycan array binding signal (z-score),[20],-0.808
same,glycan array binding signal (z-score),[21],-0.62
same,glycan array binding signal (z-score),[22],0.216
same,glycan array binding signal (z-score),[23],-0.571
same,glycan array binding signal (z-score),[24],-0.197
same,glycan array binding signal (z-score),[25],-0.664
same,glycan array binding signal (z-score),[26],-0.473
same,glycan array binding signal (z-score),[27],-0.39
same,glycan array binding signal (z-score),[28],-0.44
same,glycan array binding signal (z-score),[29],0.122
same,glycan array binding signal (z-score),[30],0.257
same,glycan array binding signal (z-score),[31],-0.491
same,glycan array binding signal (z-score),[32],-0.588
same,glycan array binding signal (z-score),[33],-0.028
same,glycan array binding signal (z-score),[34],-0.379
same,glycan array binding signal (z-score),[35],-0.246
same,glycan array binding signal (z-score),[36],-0.868
same,glycan array binding signal (z-score),[37],-1.03
same,glycan array binding signal (z-score),[38],-0.817
same,glycan array binding signal (z-score),[39],0.405
same,glycan array binding signal (z-score),[40],-0.73
same,glycan array binding signal (z-score),[41],-0.277
same,glycan array binding signal (z-score),[42],-0.803
same,glycan array binding signal (z-score),[43],-0.507
same,glycan array binding signal (z-score),[44],0.383
same,glycan array binding signal (z-score),[45],3.1
